From the RNAGym collection of RNA variant scans (doi:10.1073/pnas.2313332121)
This sample is rich in variants without activity.

B1: TPR 5TU (parent)
chain: GGAUCUUCUCGAUCUAACAAAAAAGACAAAUCUGCCACAAAGCUUGAGAGCAUCUUCGGAUGCAGAGGCGGCAGCCUUCGGUGGCGCGAUAGCGCCAACGUUCUCAACUAUGACACGCAAAACGCGUGCUCCGUUGAAUGGAGUUUAUCAUG

Variants of: B1
Assay: polymerase ribozyme fitness, log enrichment relative to wild type (log ratio); higher = more active; in vitro selection for triplet polymerase activity
Summary of the method: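 After PCR construction and transcription, each subunit's mutant library from a heterodimeric triplet polymerase ribozyme was annealed with a biotinylated primer, the partner subunit and triplets. Incubation was frozen, at −7 °C, and extended constructs were gel-excised, bound to streptavidin beads and amplified by RT-PCR, in one selection round done in triplicate. Fitness is the logarithm of a genotype's enrichment divided by that of the wild type, from inverse-variance-weighted replicate averages of Illumina-sequenced inputs and outputs. The base of the logarithm is 2, and genotypes needed ≥10 input reads and ≥1 read per output.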

Variant | polymerase ribozyme fitness (log ratio)
GGAUUUACUCGAUCUAACAAAAAAGACAAAUUUGCCCCAAAGCUUGAGAGCAUCUUCGGAUGCAGAGGCGGCAGCCUUCGGUGGCGCGAUAGGGCCAACGUUCUCAACUAUGACACGCAAAACGCGUGCUCCAAUGAAUGGAGUUUAUCAUG [C5U U7A C32U A37C C93G G133A U134A] | ≤ -4.2
GGAUUUGCUCCAUCUAACAAAAAAGACAAUUCUGCCACAAAGCUUGCGAGCAUGUUUGGAUGCCGAGGCGGCAGCCUUCGGUGGCGCGAUACCGCCAACGUUCUCAACUAUGACACGCAAAACGCGUGCUACGUUGAAUGGAGUUUAUCAUG [C5U U7G G11C A30U A47C C54G C57U A64C G92C C131A] | ≤ -4.2
GGAUUUUCUCGAUCGAACAAAAAAGACAAAUCUGCCACCAAGCUUGAGAGCAUCUUCGGAUGCAGAGGCGGCAGCCUUCGGUAGCGCGAGAGCGCCAACGUUCUCAACUAUGAAACGCAAAACGCGUGCUCCGUCGAAUGGAGUUUAUCAUG [C5U U15G A39C G83A U90G C114A U135C] | ≤ -4.2
GGAUUUUCUCGAUCUAACAAAAAAGACAAAUCUGCCACAAAGCUAGAGAUCAUCUUCGGAUGCAGAGGCGGCAGCCUUCGGUGGCCCGAUAGCGCUAACGUUCUCAACUAUGACACGCAAAACGCGUGCUCCGUUGAAUGGAGUUUAUCAUG [C5U U45A G50U G86C C96U] | ≤ -4.2
GGAUUUUCUCGAUCUAACAAAAAAGACAAAUCUGCCACAAAGCUUGAGAGCAUCAUCGGAUGCAGAGGCGGCAGCCUUCGGUGGCGCGAUAGCGCCAACGUUCUCAACUAUGACACGCAAAACGCGUGCUCCGUUGAAUGGAGUUUAUCAUG [C5U U55A] | 0.322
GGAUUUUCUCGAUCUAACAAAAAAGACAAAUCUGCCACAAAGCUUGAGAGCAUCGUCGGUUGCAGAGGCGGCAGCCUUCGUUGGCUCGAUAGCGCCACCGUUCUCAACUAUGACACGCAAAACGCGGGCUCCGUUUAAUGGAGUUUAUCAUG [C5U U55G A60U G81U G86U A98C U127G G136U] | ≤ -4.2
GGAUCAUCUCGUUCUAACAAAAAAGACAAAUCUGCCACAACGCUUGAGAGGAUCUUCGGAUGCAGAGGCGGCAGCCUUCGGUGGCGAGAUAACGCCAACAUUCUCAACUAUGACACGCAAAACGCGUGCUCCGUUGAAUGGAGUUUAACAUG [U6A A12U A41C C51G C87A G92A G100A U148A] | ≤ -4.2
GGAUCAUCUCGUUCUAACAAAAAAGACAAAUCUGCCACAAAGCUUGAGAGCAACUUCGGAUGCAGAGGCGGCAGCCUUCGGUGGCGCGAUAGCGCCAACGUUCUCAACUAUGAUACGCAAAACGCGUGCUCCGUUGAAUGGAGUUUAUCAUG [U6A A12U U53A C114U] | -3.59
GGAUCAUCUCGAUCUUACAAAAACGACAAAUCUGCCACAAAGCUUGAGAGCAUCUUCGGAUGCAGAGGCGGCAGCCUUCGGUGGCGCGAUAGCGCCAACGUUCUCAACUAUGCCACGCAAAACGCGUGCUCCGUUGAAUGGAGUUUAUCAUG [U6A A16U A24C A113C] | ≤ -4.2
GGAUCAUCUCGAUCUUACAAAAAAGACAAAUCUGCCACCAAGCUUGAGAGCAUCUUCGGAUGCAGACGCGGCAGCCUUCGGUGGCGCGAUAUCGCCAACGUUCUCAACUAUGACGCGCAAAACGCGUGCUCCGUUGAAUGGAGUUUAUCAUG [U6A A16U A39C G67C G92U A115G] | ≤ -4.2
GGAUCAUCUCGAUCUAGCAAAAAAGACAAAUCUGCCACAAAGCUUGAGAGCCUCUUCGGAUGCUGAGACGGCAGCCUUCGGUGGCGGGAUAGCGCUAACGUUCUCAACUAUGACACGCAAAACGCGUGCUCCGUUGAAUGGAUUUUAUCCUG [U6A A17G A52C A64U G68A C87G C96U G143U A150C] | ≤ -4.2
GGAUCAUCUCGAUCUAACGAAAAAGACAAAUCUGCCACAAAGCUUGAGAGCAUCUUCGGAUGCAGAGGCGGCAGCCCUCGGUCGCGCGAUAGCGCCAACGUUCUCAACUAUGACACGCAAAACGCGUGCUCCGUUGAAUGGAGUUUAUCAUG [U6A A19G U77C G83C] | ≤ -4.2
GGAUCAUCUCGAUCUAACUAAAAAGACACAUCUGCCACAAACCUUGAGAGCAUCUUCGGAUGCAGAGGCGGCAGCCUUCGGUGGCGCGAUAUCGCCAACGUUCUCAACUAUGGCACGCAAAACGCGUGCUCCGUUGAAUGGAGUUUAUCAUG [U6A A19U A29C G42C G92U A113G] | ≤ -4.2
GGAUCAUCUCGAUCUAACAUAAAAGACAAUUCUGCCACAAAGCUUGCGAGCAUCUACGGAUGCAGAGUCGGCAGCCUUCGGUGGCGCGAUAGCGCCAACGUUCUCAACUAUGACACGCAAAACGCGUGCUCCGUUGAAUGGAGUUUAUCAUG [U6A A20U A30U A47C U56A G68U] | ≤ -4.2
GGAUCAUCUCGAUCUAACAAAUAAGACAAAUCUGCCACAAAGCUUGAGAGCAUCUUCGUAUGCAGAGGCGGCUGCCUUCGGUGGCGCGAUAGCGCCAACGUUCUCAACGAUGACACGCAAAACGCGUGCUCCGUUGAAUGGAGUUUAUCAUG [U6A A22U G59U A73U U109G] | -3.52
GGAUCAUCUCGAUCUAACAAAACAGACUAAUCUGCCAUAAAGCUUGAGAGCAUCUUCGGAUGCAGAGGAGGCAGCAUUCGGUGGCGCGAUAGCGCCAACGUUCUCAACUAUGACACGCAAAACGCGUGCUCCGUUGAAUGGUUUUUAUCAUG [U6A A23C A28U C38U C69A C76A A142U G143U] | ≤ -4.2
GGAUCAUCUCGAUCUAACAAAAAAGACGAAUCUGCCACAAAGCUUGAGAGCAUCUUCGGAUGCAGAGGCGGCAGCCUUCGGUGGCGCGAUAGCGCCAACGUUCUCAACUAUGACACGCAAAACGCGUGCUCCGUUGAAUGGAGUUUAUCAUG [U6A A28G] | ≤ -4.2
GGAUCAUCUCGAUCUAACAAAAAAGACAAUUCUGCCACAAAGCUUGAGAGCAUAUUCGGAUGCAGAGGCGGCAGCCUUCGGUGACGCGAUAGAGCCAACGUUCUCAACUAUGACACGCAAAACGCGUGCUCCGUUGAAUGGAGUUUAUCAUG [U6A A30U C54A G84A C93A] | ≤ -4.2
GGAUCAUCUCGAUCUAACAAAAAAGACAAUUCUGCCACAAAGCUAGAGAGCAUCUUCGGAUGCAGAGGCGGCAGCCUUCGGUGACGCGAUAGCGCCAACGUUCUCAACUAUGACACGCAAAACCCGUGCUCCGUUGAAUGGAGUUUAUCAUG [U6A A30U U45A G84A G124C] | ≤ -4.2
